Data: the supplement of paper PMC11417369
Some of the results follow.

System: PfHDP1 homeodomain (GST-tagged)
Assay: gcPBM binding intensity (ln(normalized median fluorescence intensity)); higher = stronger DNA binding
Outline: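 An Agilent 4 × 180k array carrying primer-extended double-stranded 36-bp intergenic genomic probes and negative controls received GST-tagged P. falciparum DNA-binding domains expressed in E. coli, about 25 μg on average, for 1 h. The binding buffer contained 1× PBS, 1% milk, 0.2 mg/ml BSA, 0.5% salmon testes DNA and 0.03% Triton X-100. Binding intensity is the top Masliner-normalised natural-log median intensity across replicate spots of either probe orientation, read after Alexa488 anti-GST antibody staining and a 488 nm scan.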

Sequence	gcPBM binding intensity (ln)
AATAGTTCTTGAACGTGTACATAAAATATAATTTAC [XGTACX_site11]	6.36
GAATAATCCAAACACACACACACACCCGAATAAATA [CACACA_site482]	6.9
GAAATCTAAATAGAAACACACATATATAAATAAATA [CACACA_site7762]	6.33
TTTTATATATAATTCACACAAAAAAGATACATAAGA [CACACA_site5332]	6.85
TATATAAAAATATGTTGTACGCATTTATAAATATAT [XGTACX_site3758]	6.64
ATTTTTTTTTTTTTTTTTTTTTTTTTTGAATTCACA [CACACA_negctrl_site982]	5.92
ATTTTGTTTTTTTTTGCACACCATAAGGAGTGTAGG [CACACA_site1414]	10.1
ATAAAAATATAATTGAGTACATATGAATAGTCCTAT [XGTACX_site6281]	6.24
TAAGCAAAAATAATTACACACAAATTTATAAAAAAT [CACACA_site3377]	6.19
ACAACACATATTCATCGTACATGTATTAGGAAGACA [XGTACX_site1859]	6.65
GGTGTATGTTAAAGGAGTACATATATATATATATAT [XGTACX_site7727]	9.6
TATTTTTATTTATAACGTACGAAAAATGTATATAAT [XGTACX_site703]	6.97
CATACACATTTCATATGTACATAGATTGAAGGGAAG [XGTACX_site116]	6.61
TGGAGGTCAGTTCACAGTACCCAGGAAATCTGCGGA [XGTACX_site2556]	5.68
TATAACATAGGACACACACACATACATACACAAAAA [CACACA_site5062]	7.06
ATGCATAATATACTCTTACACACCATTTCTATATAC [CACACA_site1461]	6.95
TCATATATTTTATACATACACACATATATATATTTT [CACACA_site3941]	6.96
ACGTTATACACAGTACGTACATAACTATCTAAATGT [XGTACX_site5068]	6.9
TGTGTATAAATATACACACACATATAAATATTTTAA [CACACA_site7005]	6.75
TATTTAAAAAATAATACACACATAATATAACAAAAT [CACACA_site3174]	7.13
ACATATAATATAAATTGTACATATAAATATATTATT [XGTACX_site4268]	6.35
AAAAAAAAAAAACACACACACACACCCACCCATACA [CACACA_site2859]	7.04
TTTACAACATCAAAATGTACGCATTATTATTATTAA [XGTACX_site3017]	6.11

Sequence	gcPBM binding intensity (ln)
AGAAATATATATATATATATATATATATATATATAT [TGCATGCA_negctrl_site375]	9.43
AGTAACAAAAGAAAAAAATATGCAAACATATATATA [XGTACX_negctrl_site468]	6.79
TTCATTTTTTGCTTTCAACACACATACAATATATAT [CACACA_site9369]	7
AAAAAAAAAAAAAAATATATATATATATACATACAT [CACACA_negctrl_site317]	6.44
TTTTTCTTTTTTTCTTTTTTTATAAAACTTAATTGT [CACACA_negctrl_site384]	6.28
TATTAATTATATTTATGTACATAATCATATTATTAT [XGTACX_site7938]	6.53
ACGTAATAAAATAGTTGTACAACTTTTTATAATATA [XGTACX_site4393]	7.05
TATATATATATTATATGTACGTATGTATGTATATAT [XGTACX_site6451]	8.33
TCATAAATATGAAAAAGTACAAAGGTAGATTTTGAA [XGTACX_site4535]	6.39
AAACGATTAATGTGTACACACATAGTTATAAACCTA [CACACA_site2110]	6.59
GGTATACACAAGTATACACACATATATATATATATA [CACACA_site9063]	9.3
ACAAAGTTATAATTCTTGCACTTTAAGGTTCATTTA	7.08
ATAAATATCTAGGGTTCACACATTATATATCTGTAT [CACACA_site5702]	6.2
CGTGAATATATGATATGTACTTATAAAAATTTGTGC [XGTACX_site5480]	6.45
TTTTCCTCTTAAAATATACACACTGATTTAAGAAAA [CACACA_site3301]	6.42
ATATTACACAGATATGCACACATTGTAGTTATTTAT [CACACA_site5454]	9.65
AAAAAGGAAATTTACACACACATATAACATACATTA [CACACA_site7534]	6.71
AATTATAATAAATAACGTACAAAAAATAAATTATTT [XGTACX_site3627]	6.39
ATAAAAATAAAATGGACACACATATATACATATTTG [CACACA_site3277]	6.28
TTTTTTTTTGATATTTGTACTTAAGTAAATATTATA [XGTACX_site3843]	6.23
ATAAGCGAATATATATCACACACAAAAAAATCAGAC [CACACA_site8657]	7.59
TATATATTCATGTGTACACACAAAAAAAAATAAAGT [CACACA_site2207]	7.6
TCCGTATAATTTTGCACACGAATATAAATTTGATAA [CACACA_site136]	10.9

Sequence	gcPBM binding intensity (ln)
ACATATCGGGTGCATTAACACACATTTATTTGAATA [CACACA_site8736]	9.3
ATTATATCACTGTGTTGTACTTCTTATATAAAAATA [XGTACX_site2333]	7.11
CGTTTATTAAACTTGACACACACACCCCCACATATA [CACACA_site8151]	7.43
AATCGATAACAATGTAGTACCAGAAAAATAAATATT [XGTACX_site8501]	6.65
TATATATATATATATGCATGCCATATGATATATATA [TGCATGCA_site109]	9.34
TTTAATTCTTATATTTGTACAGATTCATAATTAAAT [XGTACX_site7465]	6.38
TATCTTTTATAAGTGACACACATAAATATTTAAATT [CACACA_site833]	6.56
ATATTAGGGTCATGAACACACAAAAAAAAAAAAAAA [CACACA_site937]	6.29
GCTATCATATCATGTTGTACACAACCTCAAAATGAA [XGTACX_site8757]	6.67
TCATATTTACAAAAAGGTATTAATAAATAAAATATT [CACACA_negctrl_site259]	6.56
AATAAGTGTTGATTCTTAAAATGACCATATAATAAT [TGCATGCA_negctrl_site221]	6.48
TGTATAACCTGTGTTACACACATTAGAATTTATATA [CACACA_site6393]	6.15
TTCTCCATCAGATACTGTACATAATATATATAATAT [XGTACX_site8827]	6.86
TACATAAACTTTATAACACACACTTATATATATATA [CACACA_site1106]	8.93
TATATAAAGATATATACACACAAAAAAAAAAAAAAA [CACACA_site6778]	6.32
GCATCATTTATTTGCACACCTATTATATACTTTTTA [CACACA_site2098]	10.7
TATAAAAATATATATATATATATATATATATATATA [TGCATGCA_negctrl_site541]	9.32
TTGATATAAAAAGAAAGTACTTTATAGATGTTTATT [XGTACX_site8144]	6.39
AATAATAACAAATGAACACACATATATATGAGCAAA [CACACA_site2121]	8.62
TTAGTATATTTTTCCTGTACGTACTCAGATACAAAT [XGTACX_site7397]	6.74
TTAAATAATTTTTAATGTACATTAAATTTATTATTA [XGTACX_site261]	6.07
TACACATTATGTATCATACACACAAATAAATATATA [CACACA_site608]	6.66
TTTTACTCTTAAAATAATAAAAAATATTCACATTTA [CACACA_negctrl_site1508]	5.71

Sequence	gcPBM binding intensity (ln)
AAAAAGAATATAAGTAGTACAGTGCATATAATAATT [XGTACX_site617]	9.75
AAGAGAAATGGGCACACACACACATATTATATATAT [CACACA_site1531]	7.18
TATATATACATATACGCATGTAAATTCAAAAGTAAA [TGCATGCA_site956]	6.56
TATAATTTTTTTAATACACACAAATATTTATATATA [CACACA_site3042]	6.56
AATTAATGTTTTGTCACACAGTATGATTATATATAT [CACACA_site6143]	6.63
ACATATTATAGGAATACACACAAAAACTTATCGGTA [CACACA_site7587]	6.56
ATTATATATATTGGAGTGCATATATAGTATTTTATA	8.26
ATAGAAATCTATTGTGATTATTATTTTATTTTTAGT [XGTACX_negctrl_site605]	6.07
TGAAGATAAAAATATGCACACATATATATATATATA [CACACA_site8027]	9.72
CATAAAAATGAACATACACACATATATTTATTTATA [CACACA_site7222]	6.31
TTCTACGTTTTAAAAAAAAAAAAAAAAAAAAAAAAA [XGTACX_negctrl_site6]	6.14
ATACATATCTATAATACACACATAAATGTAACATTT [CACACA_site7621]	7.04
AATGTATTATGTAATAGTACGTATAATATCTTATTT [XGTACX_site3]	6.24
CAACACTTTCAAAAATGTACGTACAAATGTATTTTA [XGTACX_site6713]	6.51
AGTTTCCATATGAGGTGTACATATATAATTTATTAT [XGTACX_site2369]	6.74
ACAAAATAAAGACACACACACAAACACAAAAAAATA [CACACA_site7568]	6.9
ATTAATGATTTTTGTTGTACATTATTAATTTACATT [XGTACX_site544]	6.47
ATGCGTATACTAAGAACACACAAGTTACTTGGTGTT [CACACA_site1625]	6.11
CATACATACATACATACACACATACATATGTATTTA [CACACA_site5384]	7.57
TATTTTATATTTCATTTGTTATTTTTCTTGGTTCTA [CACACA_negctrl_site33]	6.49
